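Tested at 5 concentrations; 48 h exposure; 96-well plates; endpoints linearly interpolated, else capped at highest concentration. At the GI50, growth is halved. TGI: total growth inhibition.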 A value given as a limit tells only on which side of the number the result lay.

What all share (experiment): DTP human tumour cell line panel, 48 h
The test system of test [1] is UACC-257 melanoma.
Test [2] has as its system SR leukemia.
The test system of test [3] is CCRF-CEM leukemia.
Test [4] relates to NCI-H23 lung.
The subject of test [5] is HOP-92 NSCLC.
For test [6], the system named is NCI-H226 lung.

As a reminder, the GI50 is the concentration that inhibits growth by half. As usually defined, the TGI is the concentration at which net growth stops. Low readings indicate more potent growth arrest, high ones less potent growth arrest. `O=C(O)c1ccc(Oc2nccc(-c3c(-c4ccc(F)cc4)ncn3C3CCNCC3)n2)cc1`: the GI50 in test [1], in test [2], in test [3], in test [4], in test [5] and in test [6] was > 25 µM in each case. Also, the TGI in test [1], in test [2], in test [3], in test [4], in test [5] and in test [6] was > 25 µM each time.

The values are drawn from PubChem BioAssay (NCI).
